Laboratory results published in PubChem BioAssay AID887 (National Center for Advancing Translational Sciences (NCATS), 2007).
The whole screen tested about 74,000 compounds, of which about 1,100 (1.5%) were called active. Inconclusive means that the source gave no clear call. Such entries were picked first, then a sample of the others. Calls come from the whole dose curve; as a rule, active = well fitted inhibition curve with a large enough effect; inconclusive = small, poorly fitted or top-dose-only effect; inactive = no such curve, though single readings can be large or run the other way. No potency is given beside an inconclusive call; the fits are too rough.
Note: nearly all actives have a fitted effect of over 55% in size.
Potency is the fitted concentration of half-maximal effect; tags give direction and shape of the fitted curve.

What follows are molecules tested against Polyunsaturated fatty acid lipoxygenase ALOX15 (Homo sapiens) (UniProt P16050) (assay: qHTS Assay for Inhibitors of 15-hLO (15-human lipoxygenase)). Conditions: purified 15hLO-1, xylenol orange hydroperoxide absorbance; series mostly up to 57.1 µM.
Chain of UniProt P16050 (P16050 whole entry, looked up): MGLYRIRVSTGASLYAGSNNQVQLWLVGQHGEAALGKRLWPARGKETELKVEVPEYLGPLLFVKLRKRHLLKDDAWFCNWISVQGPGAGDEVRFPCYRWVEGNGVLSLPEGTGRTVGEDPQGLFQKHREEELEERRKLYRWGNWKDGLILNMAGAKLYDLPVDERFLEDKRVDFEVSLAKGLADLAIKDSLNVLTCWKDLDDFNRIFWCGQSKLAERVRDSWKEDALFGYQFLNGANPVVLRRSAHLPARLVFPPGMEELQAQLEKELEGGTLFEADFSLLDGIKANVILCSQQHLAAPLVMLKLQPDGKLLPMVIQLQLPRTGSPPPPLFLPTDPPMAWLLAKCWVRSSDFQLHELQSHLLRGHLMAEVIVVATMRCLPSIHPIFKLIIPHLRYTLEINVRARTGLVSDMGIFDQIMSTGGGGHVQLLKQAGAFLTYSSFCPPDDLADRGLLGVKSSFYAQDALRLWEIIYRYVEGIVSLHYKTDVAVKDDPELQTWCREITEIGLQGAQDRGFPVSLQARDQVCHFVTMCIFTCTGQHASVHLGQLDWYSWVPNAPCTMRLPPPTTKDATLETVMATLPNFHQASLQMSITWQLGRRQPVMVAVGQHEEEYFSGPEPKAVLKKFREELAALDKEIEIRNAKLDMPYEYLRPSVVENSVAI
In short: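 Inhibition is scored from a chromogenic endpoint. After 15 min enzyme-compound contact, arachidonic acid (50 uM final) reacts 6 min with 40 nM 15hLO-1 at room temperature, then Fe-XO reagent is added for 30 min and absorbance ratio recorded.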
In the case of `CC(=O)c1nc2ccccc2n1S(=O)(=O)c1ccc(Cl)cc1`, the Potency is reported as “inactive”. In the case of `CC1CCN(c2oc(-c3ccccc3F)nc2C#N)CC1`, the Potency is reported as inconclusive [inhibitor, full curve, poor fit]. In the case of `CCOc1ccc(C(=O)c2ccc(O)c(O)c2O)cc1`, the Potency is reported as inconclusive [inhibitor, single point]. For `CC(C)(C)NC[C@H](O)COc1cccc2[nH]c(=O)[nH]c12`, the Potency was inconclusive [inhibitor, single point]. For `CC(C)CCn1c(N)c(S(=O)(=O)c2cccs2)c2nc3ccccc3nc21`, the Potency was inconclusive [inhibitor, single point]. For `CCc1cccc2c3c([nH]c12)C(CC)(CC(=O)O)OCC3` (stereo unspecified), the Potency was inconclusive [inhibitor, partial curve, poor fit]. With `COc1ccccc1-c1coc2c(CN3CCN(CCO)CC3)c(O)ccc2c1=O` the Potency was “inactive”. With `CCOC(=O)C1=C(c2ccccc2)NC(SCC(=O)Nc2cccc(C)c2)=C(C#N)C1c1ccco1` (stereo unspecified) the Potency was inconclusive [inhibitor, partial curve]. For `Cn1c(-c2ccc(N)cc2)nc2ccccc21`, the Potency was inconclusive [inhibitor, full curve]. In the case of `COc1ccc(N2CSC3=C(C#N)C(c4cc(OC)ccc4OC)CC(=O)N3C2)c(OC)c1` (stereo unspecified), the Potency is reported as inconclusive [inhibitor, full curve]. With `CCOC(=O)c1c(C)oc2c1c1c(c3ccccc32)OCN(Cc2cccnc2)C1` the Potency was active: 2 µM. With `CCCC1C(C#N)=C(N)Oc2cc(C)n(C)c(=O)c21` (stereo unspecified) the Potency was inconclusive [inhibitor, single point]. With `C/C(=C\c1ccco1)C1C(C#N)=C(N)OC2=C1C(=O)CC(C)(C)C2` (stereo unspecified) the Potency was “inactive”. In the case of `O=c1[nH]c2ccc(Cl)cc2c(-c2ccccc2)c1CN1CCOCC1`, the Potency is reported as inconclusive [inhibitor, full curve]. In the case of `O=C(Nc1ccc(N2CCCC2)cc1)c1ccc(Br)o1`, the Potency is reported as inconclusive [inhibitor, partial curve]. In the case of `COC(=O)c1c(C(=O)OC)c2n(c1C)Cc1ccccc1C2`, the Potency is reported as active: 7.94 µM. `Cc1ccccc1-c1nc(NCc2cccnc2)c2ccccc2n1` was tested, and the Potency was inconclusive [inhibitor, single point]. With `CC(=O)C1=C(C)Nc2cc(C(F)(F)F)ccc2S1` the Potency was active: 12.6 µM. `c1ccc(-n2nnnc2SCc2cn3cccnc3n2)cc1` was tested, and the Potency was “inactive”. For `CCC(=O)N1CCc2cc(S(=O)(=O)NCCCOC)ccc21`, the Potency was “inactive”. With `O=C(Nc1ccc(Cl)cc1C(=O)Nc1ccc(Br)cn1)c1ccco1` the Potency was inconclusive [inhibitor, partial curve].
